Test results: doi:10.1101/2025.05.13.653810, “Spatial control of secretory vesicle targeting by the Ync13–Rga7–Rng10 complex during cytokinesis” (bioRxiv, 2025)
No constants are given. Whether binding was seen depends on the method and setting. Some results given as binding are weak or reduced against the parent protein; the word gives no strength. For some assays here: Sequences can lack the tags named with a protein.

Experiments:
Rga7-mEGFP (S. pombe) = molecular target: T1, Rga7-mEGFP (S. pombe) (UniProt O94466); test: ectopic mistargeting to mitochondria (Tom20-GBP); mEGFP-, GFP- or mECitrine-tagged protein 1 mistargeted to mitochondria by Tom20 tagged with GFP-binding protein (GBP) nanobody in live S. pombe cells; recruitment of tdTomato-, mCherry- or RFP-tagged protein 2 to mitochondria seen by confocal microscopy
T1 sequence: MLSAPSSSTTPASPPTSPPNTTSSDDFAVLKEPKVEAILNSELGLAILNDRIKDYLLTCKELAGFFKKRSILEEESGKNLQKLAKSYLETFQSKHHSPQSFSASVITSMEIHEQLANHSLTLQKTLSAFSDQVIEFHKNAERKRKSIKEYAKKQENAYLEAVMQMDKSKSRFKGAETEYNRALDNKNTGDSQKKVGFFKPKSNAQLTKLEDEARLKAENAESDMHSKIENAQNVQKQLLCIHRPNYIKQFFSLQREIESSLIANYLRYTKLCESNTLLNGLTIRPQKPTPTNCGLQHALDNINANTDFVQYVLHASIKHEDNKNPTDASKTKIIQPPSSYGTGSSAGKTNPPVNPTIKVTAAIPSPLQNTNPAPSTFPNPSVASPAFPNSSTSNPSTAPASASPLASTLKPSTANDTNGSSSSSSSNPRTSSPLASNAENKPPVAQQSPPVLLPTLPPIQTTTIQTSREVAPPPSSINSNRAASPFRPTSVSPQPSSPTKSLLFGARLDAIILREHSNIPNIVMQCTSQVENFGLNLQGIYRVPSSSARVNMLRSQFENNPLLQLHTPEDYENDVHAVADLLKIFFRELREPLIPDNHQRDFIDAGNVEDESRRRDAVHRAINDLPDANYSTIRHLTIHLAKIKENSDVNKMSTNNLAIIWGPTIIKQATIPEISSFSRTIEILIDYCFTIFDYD

[1] = molecular target: T2, mECitrine-Rng10-(201–1038) (S. pombe) (UniProt Q9P6L9); test: as above
T2 sequence: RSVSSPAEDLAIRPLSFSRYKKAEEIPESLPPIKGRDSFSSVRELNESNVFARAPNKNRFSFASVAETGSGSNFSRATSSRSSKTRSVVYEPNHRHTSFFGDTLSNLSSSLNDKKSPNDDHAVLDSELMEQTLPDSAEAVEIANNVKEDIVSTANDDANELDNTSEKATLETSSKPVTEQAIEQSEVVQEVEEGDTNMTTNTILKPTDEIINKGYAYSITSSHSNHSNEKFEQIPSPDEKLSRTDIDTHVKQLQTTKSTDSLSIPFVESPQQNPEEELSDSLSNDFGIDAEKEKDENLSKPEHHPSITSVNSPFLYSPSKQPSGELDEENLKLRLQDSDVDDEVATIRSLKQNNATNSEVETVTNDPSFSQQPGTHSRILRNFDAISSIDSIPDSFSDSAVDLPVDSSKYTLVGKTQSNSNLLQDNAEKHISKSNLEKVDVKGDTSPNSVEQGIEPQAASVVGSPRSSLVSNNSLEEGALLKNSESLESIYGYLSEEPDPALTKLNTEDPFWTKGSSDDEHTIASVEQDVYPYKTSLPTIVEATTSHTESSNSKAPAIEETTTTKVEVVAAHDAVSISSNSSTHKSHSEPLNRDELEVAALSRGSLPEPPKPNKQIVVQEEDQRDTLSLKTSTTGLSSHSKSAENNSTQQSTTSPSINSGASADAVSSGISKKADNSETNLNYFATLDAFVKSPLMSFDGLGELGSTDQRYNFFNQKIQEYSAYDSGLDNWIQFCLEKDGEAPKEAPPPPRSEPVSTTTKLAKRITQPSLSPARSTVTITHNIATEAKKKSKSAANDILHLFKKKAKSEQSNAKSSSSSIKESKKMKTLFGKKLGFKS

binding (Rga7-mEGFP (S. pombe)): binds | binding [1]: binds
B1: Ync13-tdTomato (protein, UniProt O13683 1-1237)
chain: MNCRRKPLPLHSNEVQAAESISKDELYSWTLKNVLILFLVQYRASTPSALQTSSFSTPVEKKTNGAFSGSLFSAKEKKDNPKYPKDFIKYLSLALESISMGKEPEYQDQLIRGCFAAFYNNINKSHISKQLKDSRKIEDMFLIFASSVSSELTKRLGTAYDSNLADRITASFIELCKRVTLKGQLASPSSEFVSHLDMYHSKLLNKSEILSTKRVNRGQDQFDLSSFPLLKVFSSVFKVAYSKALLDAEKLFPSIDEAAIAEDIGILIEDLESDACKFSHSVVDFSNYKSYSTWKARELQTLEQHRKIMLSLIPLSSSPNHPIQPIGFPASRKTPTYVPPIARPYFRQLLSLCLEYRLQVTDPVEVKQINTFIRECSIYWRILPSTRCALSMDFAREHLQKGLITSADVLTHFGELHKSLKEWEITYWPKIDVSIFSSALFGIRNALAQLLKKSLLDLLHEKKADFHRWLNIMSICVEDGKVINQDLSPKSEISSVALALQEHCKVIFDEEFDLSKLPSSNFLDEIILASNRISVRIKFLERNCSECIYGVLSLPQIFINIVLPNYIRAALVVAKEYLREKANADINDLTKDMLEIYSDLKQMIHVLQEYHNEEYRIGSFEGFFQPFIDSWLDNVEASAEQWFLRSLEKDNFDENSSEGQYSSSIVDLFHAFHQAFRTLEGFEWEDDLANARFFTRFFRVIYIVLSKYTQWTTQKFFEEANKQDDTSEVQNDNSSSWFSKARNILSGSNEVLPFRFSPTMCILLNNIHFAMHAYEELEQKIDLQRLIEALDVAESTKRHKISATNYLYTIKVVRGEGLHPDGAGKIRTSYIVLTDNKGRRIGKTRPIHSMNPRWDDTFEVKTKDALMITANLWSKGKFNDHEIFGRSSFTLSPKIYGDYLPREEWFDLNPHGELLLRIEMEGEREHIGFYVGRTYHDLERAQREMIKFIVNKMEPVINQNLSTATLKKLLSANTWMDLDKTMTSVTSLLNRTGFSSKSSENVKKEGELTDVQIEAAIYELLDYFDLNFSIIAKHLTKDVFVTVMSYVWDEVVCTTEELLLPPVSVKPINRKPLSPAQMAIVYRWLQFLKDYFYANGEGVKLPVLETDHYKELLRVQEYYDKPTDFLLQECDKIASQLYLSSRMVNNEPVESLPRHSRIKFANKEIYRSGTIRKVHIQTNESELERNERIILRILRMRADSKRFLSKHFQRKGRLLMADAMRNGYVMPLGHLKKLDSR
